The values that follow come from a collection of fitness landscapes (doi:10.1016/j.celrep.2020.107928).

In all, about 81,000 sequences were measured (“one-hybrid fitness for binding parS DNA”: median about -0.17, highest 2% from about 0.51 on). This is one part of the list.

Sequences and labels used below:
B1: Caulobacter ParB omega fusion; a variant is named by its letters at X, in order, B8GW30 (parent)
chain: MESVVVGEPGMSEGRRGLGRGLSALLGEVDAAPAQAPGEQLGGSREAPIEILQRNPDQPRRTFREEDLEDLSNSIREKGVLQPILVRPSPDTAGEYQIVAGERAWRAAQRAGLKTVPIMVRELDDLAVLEIGIIENVQRADLNVLEEALSYKVLMEKFERTQENIAQTIGKSXSHVANXMRLLXLPDEVQSYLVSGELTAXHARAIAAAADPVALAKQIIEGGLSVRETEALARKAPNLSAGKSKGGRPPRVKDTDTQALESDLSSVLGLDVSIDHRGSTGTLTITYATLEQLDDLCNRLTRGI

The variants in the assay derive from B1. In words: one-hybrid fitness for binding parS DNA (scaled: cognate 1, non-cognate 0); higher = stronger binding. The note with it: with parS DNA site. The method in brief:
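Bacterial one-hybrid selection in E. coli USO rpoZ- hisB- pyrF- with a HIS3 reporter carrying the site 19 bp from the promoter, screening Caulobacter ParB libraries with four specificity codons randomised (NNS). Cells grew 48 hours at 37°C on M9-minus-histidine plus 0.1 mM IPTG and 5 mM 3-AT. Plasmids before and after selection were Illumina-sequenced, three replicate libraries pooled, and variants under 10 reads dropped. Fitness is the log change in variant-to-wild-type read ratio, rescaled to cognate 1, non-cognate 0.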
On to NLMY, for which the “one-hybrid fitness for binding parS DNA” value is no more than 0.2. Turning to RWMF, the “one-hybrid fitness for binding parS DNA” value is no more than 0.2. Take RDKG: the “one-hybrid fitness for binding parS DNA” value is 0.274.

As to YPPC, the “one-hybrid fitness for binding parS DNA” value was no more than 0.2. In the case of RFHV, the “one-hybrid fitness for binding parS DNA” value was no more than 0.2. On to ARGD, for which the “one-hybrid fitness for binding parS DNA” value was no more than 0.2.

Regarding DIHS, the “one-hybrid fitness for binding parS DNA” value was no more than 0.2. As for SCVC, the “one-hybrid fitness for binding parS DNA” value was no more than 0.2.

For the variant DGTG, the “one-hybrid fitness for binding parS DNA” value is no more than 0.2. The value for WQTS was no more than 0.2; that for FTAT was no more than 0.2; that for LACR was no more than 0.2. Turning to AKTR, the “one-hybrid fitness for binding parS DNA” value is no more than 0.2. For the variant MARE, the “one-hybrid fitness for binding parS DNA” value was no more than 0.2. Turning to KTEL, the “one-hybrid fitness for binding parS DNA” value was no more than 0.2. As for TSAW, the “one-hybrid fitness for binding parS DNA” value was no more than 0.2.

On to TMRT, for which the “one-hybrid fitness for binding parS DNA” value was no more than 0.2. As for KVAS, the “one-hybrid fitness for binding parS DNA” value was no more than 0.2. The value for RHFA was 0.516; that for RMVA was 0.611. As for LYTG, the “one-hybrid fitness for binding parS DNA” value is no more than 0.2. The value for TPVT was no more than 0.2; that for PWRV was no more than 0.2; that for TGIT was no more than 0.2. With PFTA, the “one-hybrid fitness for binding parS DNA” value is no more than 0.2. In the case of VTAT, the “one-hybrid fitness for binding parS DNA” value is no more than 0.2.

RGFR: the “one-hybrid fitness for binding parS DNA” value was no more than 0.2. Regarding SGEV, the “one-hybrid fitness for binding parS DNA” value was no more than 0.2. The value for TANY was no more than 0.2; that for RRDA was 0.851. SHLV: the “one-hybrid fitness for binding parS DNA” value is no more than 0.2. For the variant IDHS, the “one-hybrid fitness for binding parS DNA” value was no more than 0.2.

Consider AKQI, for which the “one-hybrid fitness for binding parS DNA” value is no more than 0.2. The value for RMVK was no more than 0.2; that for CCRC was no more than 0.2; that for ILTQ was no more than 0.2. Take SVDD: the “one-hybrid fitness for binding parS DNA” value was no more than 0.2.

For the variant PAWR, the “one-hybrid fitness for binding parS DNA” value was no more than 0.2. As to QQKM, the “one-hybrid fitness for binding parS DNA” value is no more than 0.2.

Regarding TLEH, the “one-hybrid fitness for binding parS DNA” value is no more than 0.2. Consider LPNA, for which the “one-hybrid fitness for binding parS DNA” value was no more than 0.2. Regarding SHVC, the “one-hybrid fitness for binding parS DNA” value was no more than 0.2.

As to CKIR, the “one-hybrid fitness for binding parS DNA” value is no more than 0.2. The value for SCVT was no more than 0.2; that for LCKD was no more than 0.2; that for HRCT was no more than 0.2.

Take IEWG: the “one-hybrid fitness for binding parS DNA” value was no more than 0.2. On to TNGL, for which the “one-hybrid fitness for binding parS DNA” value was no more than 0.2. In the case of VPVA, the “one-hybrid fitness for binding parS DNA” value was no more than 0.2. For the variant GKCY, the “one-hybrid fitness for binding parS DNA” value was no more than 0.2. Turning to TWVT, the “one-hybrid fitness for binding parS DNA” value was no more than 0.2.

As for MRNC, the “one-hybrid fitness for binding parS DNA” value is no more than 0.2. The value for YPGC was no more than 0.2; that for MERL was no more than 0.2. The same measure for PLYL: no more than 0.2; for LSPD: no more than 0.2; for IGQG: no more than 0.2.

For the variant FYVG, the “one-hybrid fitness for binding parS DNA” value was no more than 0.2. The same measure for SAGA: no more than 0.2; for SWTF: no more than 0.2. In the case of DELY, the “one-hybrid fitness for binding parS DNA” value is no more than 0.2. The value for SWLY was no more than 0.2. Turning to RCYQ, the “one-hybrid fitness for binding parS DNA” value was no more than 0.2. The value for KVGR was no more than 0.2. The value for LLIL was no more than 0.2; that for HWAG was no more than 0.2; that for TYEV was no more than 0.2.

Turning to PCGR, the “one-hybrid fitness for binding parS DNA” value was no more than 0.2.

Take IGIS: the “one-hybrid fitness for binding parS DNA” value was no more than 0.2. As to VLKS, the “one-hybrid fitness for binding parS DNA” value was no more than 0.2.

Consider RQSQ, for which the “one-hybrid fitness for binding parS DNA” value was no more than 0.2. For KQTK, the “one-hybrid fitness for binding parS DNA” value was no more than 0.2. As to LNRG, the “one-hybrid fitness for binding parS DNA” value is no more than 0.2. Consider IPIR, for which the “one-hybrid fitness for binding parS DNA” value was no more than 0.2.

On to MRAG, for which the “one-hybrid fitness for binding parS DNA” value is no more than 0.2. Consider GSLW, for which the “one-hybrid fitness for binding parS DNA” value was no more than 0.2. The value for CRCL was no more than 0.2. The same measure for NTLK: no more than 0.2; for AFHE: no more than 0.2; for NPTH: no more than 0.2. The value for ACNV was no more than 0.2; that for DVVS was no more than 0.2; that for AAAL was no more than 0.2. As to YGYE, the “one-hybrid fitness for binding parS DNA” value was no more than 0.2.

For the variant LMQS, the “one-hybrid fitness for binding parS DNA” value is no more than 0.2. In the case of QTQD, the “one-hybrid fitness for binding parS DNA” value was no more than 0.2. For DCTV, the “one-hybrid fitness for binding parS DNA” value was no more than 0.2. The value for QAEV was no more than 0.2; that for NSGI was no more than 0.2. The value for VPET was no more than 0.2. PSSK: the “one-hybrid fitness for binding parS DNA” value was no more than 0.2. Consider CWTT, for which the “one-hybrid fitness for binding parS DNA” value was no more than 0.2.

Take RMDR: the “one-hybrid fitness for binding parS DNA” value is no more than 0.2.

Regarding MVRY, the “one-hybrid fitness for binding parS DNA” value is no more than 0.2. The value for HYFI was no more than 0.2; that for YGHS was no more than 0.2. With RLFA, the “one-hybrid fitness for binding parS DNA” value was determined as 0.606. The value for AQKG was no more than 0.2; that for EQIG was no more than 0.2. The value for HVDD was no more than 0.2; that for TGSA was no more than 0.2.

Turning to KTCM, the “one-hybrid fitness for binding parS DNA” value is no more than 0.2. The same measure for THYF: no more than 0.2; for RRKT: 0.59.

Turning to AIYC, the “one-hybrid fitness for binding parS DNA” value was no more than 0.2. Regarding NVCA, the “one-hybrid fitness for binding parS DNA” value was no more than 0.2. CLQC: the “one-hybrid fitness for binding parS DNA” value is no more than 0.2. As for SSNF, the “one-hybrid fitness for binding parS DNA” value is no more than 0.2. As for NYEL, the “one-hybrid fitness for binding parS DNA” value is no more than 0.2. Take IRVD: the “one-hybrid fitness for binding parS DNA” value is no more than 0.2. The same measure for NSTP: no more than 0.2; for EAMT: no more than 0.2; for KSVH: no more than 0.2. The same measure for MAYL: no more than 0.2; for RRHM: 0.424.

With EPMG, the “one-hybrid fitness for binding parS DNA” value is no more than 0.2. The value for SAPH was no more than 0.2; that for TLMV was no more than 0.2. With PNHC, the “one-hybrid fitness for binding parS DNA” value is no more than 0.2. The same measure for RHMF: no more than 0.2. The value for LTKC was no more than 0.2; that for YLDT was no more than 0.2; that for QPAR was no more than 0.2. The same measure for SEIG: no more than 0.2; for RAVL: no more than 0.2. Regarding NWLS, the “one-hybrid fitness for binding parS DNA” value was no more than 0.2. On to IDIG, for which the “one-hybrid fitness for binding parS DNA” value was no more than 0.2. The value for DELT was no more than 0.2; that for LYNA was no more than 0.2. The same measure for NTDL: no more than 0.2; for DDPG: no more than 0.2. Take FKNS: the “one-hybrid fitness for binding parS DNA” value is no more than 0.2.

Take CQSN: the “one-hybrid fitness for binding parS DNA” value is no more than 0.2. The value for SCIT was no more than 0.2. The same measure for MTMT: no more than 0.2; for CRNV: no more than 0.2; for NAWG: no more than 0.2. Regarding EYWD, the “one-hybrid fitness for binding parS DNA” value was no more than 0.2. The same measure for GQIL: no more than 0.2; for LTKR: no more than 0.2. With RCHS, the “one-hybrid fitness for binding parS DNA” value came out at 0.953.

For DKIR, the “one-hybrid fitness for binding parS DNA” value is no more than 0.2.

On to DDSS, for which the “one-hybrid fitness for binding parS DNA” value was no more than 0.2. With RVVS, the “one-hybrid fitness for binding parS DNA” value was determined as 1.03. The same measure for CTGS: no more than 0.2. For the variant TTTT, the “one-hybrid fitness for binding parS DNA” value is no more than 0.2.

QLAK: the “one-hybrid fitness for binding parS DNA” value was no more than 0.2. As to GRMG, the “one-hybrid fitness for binding parS DNA” value is no more than 0.2. The value for GLYT was no more than 0.2; that for LRGN was no more than 0.2.

Consider RKFT, for which the “one-hybrid fitness for binding parS DNA” value worked out at 0.771.

Turning to LINC, the “one-hybrid fitness for binding parS DNA” value is no more than 0.2. The value for GGDY was no more than 0.2.
